# Publication PMC4336329 (PLoS ONE, 2015)
# The whole screen tested about 310,000 compounds, of which about 2,200 (0.71%) showed an effect of 50% or more. The effect is printed as a negative number. Some of the results follow.
# Biological target: human ether-à-go-go-related gene (hERG) potassium channel (human, UniProt Q12809)
# Assay: primary screen, population patch clamp on CHO cells stably expressing hERG
# Sequence of human ether-à-go-go-related gene (hERG) potassium channel (Q12809 whole entry, looked up): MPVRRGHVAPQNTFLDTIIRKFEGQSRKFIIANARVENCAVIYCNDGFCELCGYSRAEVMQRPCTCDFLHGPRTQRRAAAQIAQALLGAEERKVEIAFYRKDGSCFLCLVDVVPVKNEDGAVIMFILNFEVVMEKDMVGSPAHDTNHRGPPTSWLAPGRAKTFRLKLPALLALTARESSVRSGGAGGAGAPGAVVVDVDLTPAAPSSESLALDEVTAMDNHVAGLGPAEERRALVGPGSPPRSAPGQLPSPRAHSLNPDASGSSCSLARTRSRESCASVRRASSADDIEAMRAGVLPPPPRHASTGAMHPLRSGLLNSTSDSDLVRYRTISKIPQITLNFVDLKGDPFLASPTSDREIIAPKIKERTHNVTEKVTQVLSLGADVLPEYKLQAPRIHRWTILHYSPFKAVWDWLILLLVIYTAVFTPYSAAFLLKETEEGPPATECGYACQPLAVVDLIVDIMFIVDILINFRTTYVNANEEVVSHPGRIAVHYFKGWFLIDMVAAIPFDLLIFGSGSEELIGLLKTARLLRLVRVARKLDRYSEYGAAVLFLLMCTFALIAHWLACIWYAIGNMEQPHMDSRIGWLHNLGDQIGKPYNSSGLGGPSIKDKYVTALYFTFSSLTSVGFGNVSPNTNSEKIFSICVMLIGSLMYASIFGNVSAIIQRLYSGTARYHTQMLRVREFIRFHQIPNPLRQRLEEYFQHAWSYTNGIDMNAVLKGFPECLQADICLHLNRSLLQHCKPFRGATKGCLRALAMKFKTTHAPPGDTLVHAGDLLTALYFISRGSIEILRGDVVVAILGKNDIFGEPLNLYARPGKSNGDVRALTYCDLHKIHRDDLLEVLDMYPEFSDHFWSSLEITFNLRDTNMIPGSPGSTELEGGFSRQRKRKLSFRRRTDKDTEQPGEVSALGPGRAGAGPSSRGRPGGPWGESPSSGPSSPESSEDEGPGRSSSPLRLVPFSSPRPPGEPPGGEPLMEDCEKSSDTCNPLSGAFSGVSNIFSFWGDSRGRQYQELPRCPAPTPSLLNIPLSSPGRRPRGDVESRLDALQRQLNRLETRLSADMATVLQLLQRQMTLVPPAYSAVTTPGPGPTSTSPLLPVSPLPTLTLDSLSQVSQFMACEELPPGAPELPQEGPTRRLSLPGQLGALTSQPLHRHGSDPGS
row,Structure (SMILES),"hERG current change (%, negative = inhibition) at 1uM [%]"
1,Cc1cccc(N/C(=N\S(=O)(=O)c2ccccc2)C(F)(F)F)c1,8.5
2,CCOC(=O)/C(C#N)=C/c1ccc(SC)cc1,16.4
3,Cc1cccc(OCc2nnc(SCC(=O)N3CCN(c4ccccc4)CC3)o2)c1C,-2.88
4,CCOC(=O)C(O)(c1ccc(N(CC)S(=O)(=O)c2ccc(C)cc2)cc1)C(F)(F)F (stereo not drawn),-2.53
5,CCCn1nnnc1SCC(=O)Nc1ccc(F)cc1,5.61
6,CCOC(=O)c1c(C)oc2cc(Br)c(O)c(Br)c12,10
7,Cc1oc(-c2ccccc2F)nc1CS(=O)CC(=O)NC1CCCCC1 (stereo not drawn),18.4
8,CC(OC(=O)/C=C/c1ccc2ccccc2n1)C(=O)NCc1ccccc1 (stereo not drawn),18.5
9,CC(/C=C/c1ccco1)=N\NC(=O)c1cccnc1,15
10,O=C(O)CCCNS(=O)(=O)c1ccc(F)cc1,19
11,O=C(NC12CC3CC(CC(C3)C1)C2)c1cnccn1,12.1
12,O=C(O)C1CCC(Cn2c(SCc3cc(=O)n4cc(Cl)ccc4n3)nc3ccsc3c2=O)CC1 (stereo not drawn),-1.61
13,Cc1ccc(-c2nn3c(C)nnc3c3ccccc23)cc1S(=O)(=O)N1CCN(CCO)CC1,-27.3
14,Cn1cc(Cl)c(C(=O)NNC(=S)NCc2ccco2)n1,5.73
15,O=C(N/N=C\c1ccc(COc2ccc([N+](=O)[O-])cc2)o1)c1ccc(Cl)cc1,-10.8
16,CN(C)c1cc[n+](CC(O)C[n+]2ccc(N(C)C)cc2)cc1.[O-][Cl+3]([O-])([O-])[O-],17.2
17,COc1cccc(-c2sc3ccc(OC)cc3c2C#CCC(C)O)c1 (stereo not drawn),13.8
18,Cn1c2ccc(F)cc2c2ncn(Cc3ccco3)c(=O)c21,-6.12
19,Cc1ccc(S(=O)(=O)NN2C(=O)c3ccccc3NC2c2ccccc2O)cc1 (stereo not drawn),11.2

row,Structure (SMILES),"hERG current change (%, negative = inhibition) at 1uM [%]"
1,CCOC(=O)Cc1csc(NC(=O)COc2ccc3ccccc3c2)n1,-31.3
2,Cc1ccc(S(=O)(=O)NCCC(=O)NCC(c2ccco2)N2CCCCC2)cc1C (stereo not drawn),-11.7
3,O=C(N/N=C\c1cc(Br)c(Br)o1)c1cncc(Br)c1,8.58
4,Cc1c(/C=N\NC(=O)c2ccc(F)cc2)cnn1C,11.9
5,O=C(O)CC1(c2ccc(F)cc2)C2CC3CC(C2)CC1C3 (stereo not drawn),20.7
6,CCOC(=O)C1CCN(CCCSc2ccc(Cl)cc2)CC1.Cl,-48
7,Cn1nc(C(=O)N2CCN(c3ccccc3)CC2)c2c1-c1ccccc1S(=O)(=O)C2,7.28
8,COc1ccc(CNC(=O)CCS(=O)(=O)c2ccc3c(c2)oc(=O)n3C)cc1,16.9
9,CCCC1CCC(C(=O)Nn2c(C)nc3ccccc3c2=O)CC1 (stereo not drawn),-12
10,COc1ccc(OC)c(NC(=O)c2ccc3nc(-c4ccccc4)c(-c4ccccc4)nc3c2)c1,26.2
11,COc1ccccc1CN1C(=O)[C@H]2Cc3c([nH]c4ccccc34)C(C)(C)N2C1=O,12.9
12,COc1ccc(CNc2cccc3[nH]c(C(F)(F)F)nc23)cc1OC.Cl,11.4
13,CCc1c(C)c2ccc(OCC(=O)NCC3CCC(C(=O)O)CC3)c(C)c2oc1=O (stereo not drawn),15.7
14,CCCOc1ccc(N2C(=O)CC(NCC#N)C2=O)cc1 (stereo not drawn),7.52
15,Cc1csc2c(N3CCN(C(=S)Nc4ccc(F)cc4F)CC3)ncnc12,-6.87
16,COc1cc(/C=N\Nc2nc(-c3ccc(C)cc3)c(NC(C)=O)s2)ccc1O,4.75
17,Cc1cc(/C=C2\SC(=S)NC2=O)c(C)n1-c1ccc(O)cc1,15.2
18,COc1ccc(-c2ccc3c(c2)S(=O)(=O)c2cccc(C(=O)NCc4ccccc4Cl)c2C3=O)cc1OC,12
19,COc1ccc(-n2c(=O)c3c(C)c(C)sc3n(Cc3ccc(F)cc3)c2=O)c(OC)c1,8.32

row,Structure (SMILES),"hERG current change (%, negative = inhibition) at 1uM [%]"
1,CC1CCc2nc(NC(=O)Cc3cccs3)sc2C1 (stereo not drawn),12.7
2,Cn1c(SCc2ccccc2)nnc1-c1ccncc1,-13
3,Cc1nnc2c(NC(C)C)nc3ccccc3n12,-5.94
4,CCN(CC)S(=O)(=O)c1ccc(Cl)c(C(=O)NC2CCCC2)c1,-1.71
5,CCOc1ccc(NC(=O)COC(=O)c2cc(=O)c3ccccc3o2)cc1,14.1
6,CCc1nc(SCC(=O)NNC(=O)c2ccc(C)cc2)c2ccccc2n1,8.56
7,Cc1c(C#N)c2ccccc2n1C,19.2
8,O=C(c1ccc(F)cc1)C(Cc1ccccc1)N1CCCCC1 (stereo not drawn),4.96
9,COc1ccc(CNC(=O)CN(Cc2ccco2)C(=O)CNS(=O)(=O)c2ccc(F)cc2)cc1,-0.564
10,COc1cc(C(=O)Nc2nc3ccc(S(C)(=O)=O)cc3s2)cc(OC)c1C,16.1
11,O=C(Cc1cccs1)Nc1nncs1,11.2
12,COc1ccc(NS(=O)(=O)c2cccc(C(=O)NNC(=O)CN3C(=O)NC(C)(C)C3=O)c2)cc1,10.9
13,O=S(=O)(Nc1ccc2c(c1)OCCO2)c1ccc(F)c(F)c1,-1.38
14,CCCCCc1ccc(-c2ccc(/C=C/C(N)=O)cc2)nc1,9.95
15,O=C(O)c1ccc(CNC(=O)C2CCCN2C(=O)OCc2ccccc2)cc1 (stereo not drawn),7.89
16,Cc1ccc(OCCCCCN2CCOCC2)cc1,11.4
17,N#Cc1cc2c(nc1SCc1ccc(Cl)cc1)CCCC2,18.1
18,CCC(C)Sc1nnc(CNC(=O)C23CC4CC(CC(C4)C2)C3)n1C1CCCCC1 (stereo not drawn),10.7
19,O=C(CCl)NCc1c(Cl)cccc1-n1cccc1,3.78
